PubChem BioAssay (Tox21)
Several values for one entry are separate records, joined by “and”; a condition that tells them apart may be missing. Identical values can stand only once. The shares of active, inactive and inconclusive entries below differ from those in the screen. A potency beside an inconclusive call is a rough fit, not a confirmed value. The source holds several records for some structures; these can differ, active in one and inactive in another. Activity calls are given as the source filed them. The call rests on the fitted dose curve; in most records, active means well fitted curve in the direction sought with a large enough effect in the repeat runs; inconclusive means weak or mixed curves; inactive means no such curve, though single readings can be large; an effect the other way counts as inactive or inconclusive.

Assays:
[1] = qHTS assay for identifying genotoxic compounds that show differential cytotoxicity against isogenic chicken DT40 cell lines with known DNA damage response pathways - wild type cell line (AID 743012); conditions: DT40 wild type chicken cells viability, CellTiter-Glo, 40 h; activity change, negative = cytotoxicity: at 68.4 µM (top of the series) unless noted; further: nearly all actives have a fitted effect of over 60% in size
Outline: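 CellTiter-Glo luminescence readout of viability in wild type DT40 cells after 40 h compound exposure at 37 C/5% CO2; 300 cells/well; reagent incubated 30 min at room temperature before reading.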

[2] = qHTS assay for identifying genotoxic compounds that show differential cytotoxicity against isogenic chicken DT40 cell lines with known DNA damage response pathways - Rev3 mutant cell line (AID 743014); conditions: chicken DT40 Rev3-/- viability, CellTiter-Glo, 40 h; activity, negative = cytotoxicity: at 68.4 µM (top of the series) unless noted; further: nearly all actives have a fitted effect of over 55% in size
[3] = qHTS assay for identifying genotoxic compounds that show differential cytotoxicity against isogenic chicken DT40 cell lines with known DNA damage response pathways - Rad54/Ku70 mutant cell line (AID 743015); conditions: DT40 Rad54/Ku70 mutant viability, CellTiter-Glo, 40 h; activity change, negative = cytotoxicity: at 66.8 µM (top of the series); further: nearly all actives have a fitted effect of over 60% in size
On the % scale 0 is the no-effect control and ±100 the full control effect; potency means the concentration at half of the fitted maximal effect; tags describe the fitted curve by direction and shape.

Structure (SMILES) | Potency [1] | Potency [2] | Potency [3] | activity change, negative = cytotoxicity [1] | activity, negative = cytotoxicity [2]
CCCCCCCCCCO | inactive | inconclusive: 9.69 µM [cytotoxic, full curve] | – | – | –
OCc1c2ccccc2cc2ccccc12 | inconclusive: 15.4 µM [rising, partial curve] | inconclusive: 54.6 µM [cytotoxic, partial curve] | inconclusive: 68.8 µM [cytotoxic, single point] | – | –
CCCc1cc(=O)[nH]c(=S)[nH]1 | inactive and inconclusive: 68.6 µM [cytotoxic, single point] | inconclusive: 26.6 µM [rising, partial curve, poor fit] | – | – | –
CC(C)(C)c1cc(CCC(=O)NN)cc(C(C)(C)C)c1O | inconclusive: 68.6 µM [cytotoxic, single point] | inconclusive: 34.4 µM [cytotoxic, partial curve] | inconclusive: 68.6 µM [cytotoxic, single point] | – | –
Cc1ccc(C(C)C)cc1 | inconclusive: 0.435 µM [rising, full curve, poor fit] | inactive | inactive | – | –
CCCCCCCCCOC(C)=O | inactive | inactive | inconclusive: 30.6 µM [cytotoxic, partial curve, poor fit] | – | –
O=[N+]([O-])c1ccc2[nH]ncc2c1 | inconclusive: 0.273 µM [rising, partial curve, poor fit] | inconclusive: 68.5 µM [cytotoxic, single point] | – | – | –
COc1cccc(N(C)C(=S)Oc2ccc3c(c2)CCCC3)n1 | active: 26.6 µM | active: 26.6 µM | – | – | –
CC1CCN(CCCC(=O)c2ccc(F)cc2)CC1 | inconclusive: 5.96 µM [cytotoxic, partial curve] | inconclusive: 2.11 µM [cytotoxic, full curve] | active: 7.5 µM | – | –
CN1CCC[C@@H]1Cc1c[nH]c2ccc(CCS(=O)(=O)c3ccccc3)cc12 | active: 26.6 µM | active: 33.5 µM | – | – | –
CCCCCC(=O)OCCc1ccccc1 | inactive | inactive | – | – | –
COC(=O)N[C@H](C(=O)N[C@@H](Cc1ccccc1)[C@@H](O)CN(Cc1ccc(-c2ccccn2)cc1)NC(=O)[C@@H](NC(=O)OC)C(C)(C)C)C(C)(C)C | inconclusive: 33.5 µM [cytotoxic, single point] | inconclusive: 33.5 µM [cytotoxic, single point] | inconclusive: 29.8 µM [cytotoxic] | – | –
CCCC(=O)OCC | inconclusive: 68.6 µM [cytotoxic, single point] | inconclusive: 68.6 µM [cytotoxic, single point] | active: 68.6 µM | – | –
CCN(CCCCOC(=O)c1ccc(OC)c(OC)c1)C(C)Cc1ccc(OC)cc1 (stereo unspecified) | inconclusive: 14.3 µM [cytotoxic, single point] | inconclusive: 7.17 µM [cytotoxic, partial curve, poor fit] | – | – | –
CCOc1ccc(NC(=O)CC(C)=O)cc1 | inconclusive: 68.6 µM [cytotoxic, single point] | inconclusive: 61.1 µM [cytotoxic, single point] | inconclusive: 48.6 µM [cytotoxic, partial curve, poor fit] | – | –
O=S(=O)(O)CC(O)CCl (stereo unspecified) | – | inactive | – | inconclusive: 0.7% | –
O=C1c2ccccc2CCc2ccccc21 | inconclusive: 27.9 µM [rising, full curve] | inconclusive: 62.4 µM [cytotoxic, single point] | inconclusive: 78.6 µM [cytotoxic, partial curve, poor fit] | – | –
O=C1[C@H](CC[C@H](O)c2ccc(F)cc2)[C@@H](c2ccc(O)cc2)N1c1ccc(F)cc1 | inconclusive: 23.7 µM [cytotoxic, partial curve, poor fit] | – | inconclusive: 33.5 µM [cytotoxic, single point] | – | inconclusive: -36.3% [cytotoxic]
COc1cc2c(cc1N)oc1ccccc12 | inconclusive: 62.4 µM [cytotoxic, partial curve] | inconclusive: 24.9 µM [cytotoxic, partial curve, poor fit] | – | – | –
O=C(OCCOCCOCCOC(=O)c1ccccc1)c1ccccc1 | inconclusive: 77 µM [cytotoxic, single point] | inconclusive: 30.6 µM [cytotoxic, partial curve, poor fit] | inconclusive: 54.5 µM [cytotoxic, partial curve] | – | –
